# The other results are listed elsewhere or left out.
# B1: XCL (Xerocomus chrysenteron) (protein)
# chain: MSYSITLRVYQTNRDRGYFSIVEKTVWHFANGGTWSEANGAHTLTQGGSGTSGVLRFLSTKGERITVAVGVHNYKRWCDVVTGLKPDETALVINPQYYNNGGRDYVREKQLAEYSVTSAIGTKVEVVYTVAEGNNLEANVIFS
# Tests used:
# Assay in all cases: glycan array binding signal (z-score within array); higher = stronger binding
# Details in all cases: glycan notation: IUPAC condensed, linker removed
# Fuc(a1-2)Gal = target: Fuc(a1-2)Gal
# Outline: (§1)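 Arrays were curated from the Consortium for Functional Glycomics database, 3228 in total, and kept only where the protein sequence was available. Binding is expressed as a within-array Z-score. This score was averaged across arrays of the same protein sequence at different concentrations or buffers and across linkers, and negative values can be read as non-binding.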
# Fuc(a1-2)Gal(b1-3)GalNAc = target: Fuc(a1-2)Gal(b1-3)GalNAc
# Outline: as §1
# [1] = target: Fuc(a1-2)Gal(b1-3)GalNAc(a1-3)[Fuc(a1-2)]Gal(b1-4)Glc
# Outline: as §1
# [2] = target: Fuc(a1-2)Gal(b1-3)GalNAc(a1-3)[Fuc(a1-2)]Gal(b1-4)GlcNAc
# Outline: as §1
# [3] = target: Fuc(a1-2)Gal(b1-3)GalNAc(b1-3)Gal
# Outline: as §1
# [4] = target: Fuc(a1-2)Gal(b1-3)GalNAc(b1-3)Gal(a1-4)Gal(b1-4)Glc
# Outline: as §1
# [5] = target: Fuc(a1-2)Gal(b1-3)GalNAc(b1-4)[Neu5Ac(a2-3)]Gal(b1-4)Glc
# Outline: as §1
# Fuc(a1-2)Gal(b1-3)GlcNAc = target: Fuc(a1-2)Gal(b1-3)GlcNAc
# Outline: as §1
# [6] = target: Fuc(a1-2)Gal(b1-3)GlcNAc(b1-2)Man(a1-3)[Fuc(a1-2)Gal(b1-3)GlcNAc(b1-2)Man(a1-6)]Man(b1-4)GlcNAc(b1-4)GlcNAc
# Outline: as §1
# [7] = target: Fuc(a1-2)Gal(b1-3)GlcNAc(b1-2)Man(a1-3)[Fuc(a1-2)Gal(b1-3)GlcNAc(b1-2)Man(a1-6)]Man(b1-4)GlcNAc(b1-4)[Fuc(a1-6)]GlcNAc
# Outline: as §1
# [8] = target: Fuc(a1-2)Gal(b1-3)GlcNAc(b1-3)Gal(b1-4)Glc
# Outline: as §1
# [9] = target: Fuc(a1-2)Gal(b1-3)GlcNAc(b1-3)GalNAc
# Outline: as §1
# [10] = target: Fuc(a1-2)Gal(b1-3)GlcNAc(b1-3)[Fuc(a1-3)[Gal(b1-4)]GlcNAc(b1-6)]Gal(b1-4)Glc
# Outline: as §1
# [11] = target: Fuc(a1-2)Gal(b1-3)GlcNAc(b1-3)[Gal(b1-4)GlcNAc(b1-6)]Gal(b1-4)Glc
# Outline: as §1
# [12] = target: Fuc(a1-2)Gal(b1-3)GlcNAc(b1-3)[Neu5Ac(a2-6)Gal(b1-4)GlcNAc(b1-6)]Gal(b1-4)Glc
# Outline: as §1
# [13] = target: Fuc(a1-2)Gal(b1-3)[Fuc(a1-4)]GlcNAc
# Outline: as §1
# [14] = target: Fuc(a1-2)Gal(b1-3)[Fuc(a1-4)]GlcNAc(b1-2)Man(a1-3)[Fuc(a1-2)Gal(b1-3)[Fuc(a1-4)]GlcNAc(b1-2)Man(a1-6)]Man(b1-4)GlcNAc(b1-4)GlcNAc
# Outline: as §1
# [15] = target: Fuc(a1-2)Gal(b1-3)[Fuc(a1-4)]GlcNAc(b1-3)[Fuc(a1-3)[Gal(b1-4)]GlcNAc(b1-6)]Gal(b1-4)Glc
# Outline: as §1
# [16] = target: Fuc(a1-2)Gal(b1-3)[Fuc(a1-4)]GlcNAc(b1-3)[Gal(b1-4)GlcNAc(b1-6)]Gal(b1-4)Glc
# Outline: as §1
# Fuc(a1-2)Gal(b1-4)Glc = target: Fuc(a1-2)Gal(b1-4)Glc
# Outline: as §1
# Fuc(a1-2)Gal(b1-4)Glc6S = target: Fuc(a1-2)Gal(b1-4)Glc6S
# Outline: as §1
# Fuc(a1-2)Gal(b1-4)GlcNAc = target: Fuc(a1-2)Gal(b1-4)GlcNAc
# Outline: as §1
# [17] = target: Fuc(a1-2)Gal(b1-4)GlcNAc(b1-2)Man(a1-3)[Fuc(a1-2)Gal(b1-4)GlcNAc(b1-2)Man(a1-6)]Man(b1-4)GlcNAc(b1-4)GlcNAc
# Outline: as §1
# [18] = target: Fuc(a1-2)Gal(b1-4)GlcNAc(b1-2)Man(a1-3)[Fuc(a1-2)Gal(b1-4)GlcNAc(b1-2)Man(a1-6)]Man(b1-4)GlcNAc(b1-4)[Fuc(a1-6)]GlcNAc
# Outline: as §1
# [19] = target: Fuc(a1-2)Gal(b1-4)GlcNAc(b1-2)[Fuc(a1-2)Gal(b1-4)GlcNAc(b1-4)]Man(a1-3)[Fuc(a1-2)Gal(b1-4)GlcNAc(b1-2)Man(a1-6)]Man(b1-4)GlcNAc(b1-4)GlcNAc
# Outline: as §1
# [20] = target: Fuc(a1-2)Gal(b1-4)GlcNAc(b1-3)Gal(b1-4)GlcNAc
# Outline: as §1
# [21] = target: Fuc(a1-2)Gal(b1-4)GlcNAc(b1-3)Gal(b1-4)GlcNAc(b1-3)Gal(b1-4)GlcNAc
# Outline: as §1
# [22] = target: Fuc(a1-2)Gal(b1-4)GlcNAc(b1-3)GalNAc
# Outline: as §1
# [23] = target: Fuc(a1-2)Gal(b1-4)GlcNAc(b1-3)[Fuc(a1-2)Gal(b1-4)GlcNAc(b1-6)]GalNAc
# Outline: as §1
# [24] = target: Fuc(a1-2)Gal(b1-4)GlcNAc6S
# Outline: as §1
binder,measurement,setting,value
B1,glycan array binding signal (z-score),Fuc(a1-2)Gal,-0.307
same,glycan array binding signal (z-score),Fuc(a1-2)Gal(b1-3)GalNAc,-0.206
same,glycan array binding signal (z-score),[1],-0.292
same,glycan array binding signal (z-score),[2],0.115
same,glycan array binding signal (z-score),[3],-0.312
same,glycan array binding signal (z-score),[4],-0.322
same,glycan array binding signal (z-score),[5],-0.312
same,glycan array binding signal (z-score),Fuc(a1-2)Gal(b1-3)GlcNAc,-0.302
same,glycan array binding signal (z-score),[6],-0.301
same,glycan array binding signal (z-score),[7],-0.313
same,glycan array binding signal (z-score),[8],-0.318
same,glycan array binding signal (z-score),[9],-0.28
same,glycan array binding signal (z-score),[10],-0.322
same,glycan array binding signal (z-score),[11],-0.321
same,glycan array binding signal (z-score),[12],-0.318
same,glycan array binding signal (z-score),[13],-0.296
same,glycan array binding signal (z-score),[14],-0.212
same,glycan array binding signal (z-score),[15],-0.325
same,glycan array binding signal (z-score),[16],-0.291
same,glycan array binding signal (z-score),Fuc(a1-2)Gal(b1-4)Glc,-0.315
same,glycan array binding signal (z-score),Fuc(a1-2)Gal(b1-4)Glc6S,-0.324
same,glycan array binding signal (z-score),Fuc(a1-2)Gal(b1-4)GlcNAc,-0.324
same,glycan array binding signal (z-score),[17],-0.295
same,glycan array binding signal (z-score),[18],-0.256
same,glycan array binding signal (z-score),[19],-0.271
same,glycan array binding signal (z-score),[20],-0.317
same,glycan array binding signal (z-score),[21],-0.317
same,glycan array binding signal (z-score),[22],0.234
same,glycan array binding signal (z-score),[23],-0.27
same,glycan array binding signal (z-score),[24],-0.327
